Assay results reported in the supplement of paper PMC3334620.
In all, about 33,000 sequences were measured (“E-score (-0.5 to 0.5)”: median about -0.017, highest 2% from about 0.3 on). Some of the results follow.

These sequences were tested against T1, Sut1 (UniProt P53032) (assay: PBM E-score (8-mer binding enrichment) (E-score (-0.5 to 0.5)); higher = stronger / more preferred TF binding; most listed sequences are background and not binding sites). Settings: protein concentration: 200 nM; construct: GST-full length.
T1 sequence: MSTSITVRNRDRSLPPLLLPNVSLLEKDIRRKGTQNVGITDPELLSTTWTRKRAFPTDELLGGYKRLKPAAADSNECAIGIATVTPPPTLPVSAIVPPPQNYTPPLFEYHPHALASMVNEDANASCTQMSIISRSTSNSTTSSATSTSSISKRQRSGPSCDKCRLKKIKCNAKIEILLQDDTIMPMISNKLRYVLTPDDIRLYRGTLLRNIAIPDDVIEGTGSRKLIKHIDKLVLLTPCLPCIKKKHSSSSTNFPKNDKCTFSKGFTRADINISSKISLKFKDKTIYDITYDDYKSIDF
How it was run: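 Each ungapped eight-base word and its reverse complement, pooled, received an E-score from the Universal PBM Analysis Suite. Underlying scans, normalised with masliner, recorded fluorescent anti-GST bound to GST-tagged yeast transcription factors. These were applied at about 100-200 nM to universal all-10-mer Agilent arrays double-stranded by primer extension.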

| Sequence | PBM E-score |
| --- | --- |
| CCTGCTGA | -0.083 |
| CCCCTCTA | -0.23 |
| TCAGAAAA | 0.0444 |
| AGGGGGAA | -0.101 |
| AATCTAGT | 0.178 |
| CGTTCACA | 0.0405 |
| CTCAGCAG | -0.228 |
| AAGGTTGA | 0.0981 |
| CCGAACAA | 0.267 |
| CACCAGGA | -0.152 |
| TACGGTGA | 0.0809 |
| CGCCCTCC | -0.232 |
| AGCGGGCC | -0.119 |
| CTCTGCCC | -0.143 |
| AAGGACTA | -0.0436 |
| GCCAGGGC | -0.417 |
| CGAGGGGC | -0.398 |
| CCCACTCG | -0.122 |
| ACCTTTCC | 0.0149 |
| ATTAGTTC | 0.22 |
| TAGGCTGA | -0.137 |
| AAAAGTTG | -0.0184 |
| TAGGGCCA | -0.256 |
| ACCGTCAG | -0.146 |
| CAAACTCA | 0.0357 |

| Sequence | PBM E-score |
| --- | --- |
| CGCCAATC | -0.0275 |
| CGCAGGAC | -0.147 |
| CATATATG | 0.0281 |
| TACTTGGA | 0.128 |
| ATACAGCA | 0.109 |
| CAGCCGGG | -0.121 |
| GTGACGGA | 0.208 |
| CGCGACTA | 0.0153 |
| GGCCCTGA | -0.111 |
| TATGTTAA | 0.192 |
| CGCTCTAA | -0.0496 |
| GACGAGAC | -0.184 |
| AAAAGACT | 0.00909 |
| AATGTCAT | 0.0297 |
| TAGAGTCA | -0.251 |
| GTTTTCCA | 0.0497 |
| ATGCTCCC | -0.0998 |
| ACTAGCGG | -0.0915 |
| GGTGAAGA | -0.0915 |
| ATCGGACG | 0.0416 |
| CAAGGAAA | 0.0463 |
| CTAGCCAG | -0.221 |
| AAGCACAA | 0.131 |
| CAGCATTA | -0.0162 |
| AATCTCGC | 0.0784 |

| Sequence | PBM E-score |
| --- | --- |
| AACTTTTG | 0.126 |
| GGCTATAC | -0.079 |
| CTTCGTAC | 0.045 |
| GAATCCGA | 0.105 |
| GATGTGGA | 0.171 |
| AGGTGAAC | -0.0497 |
| ACCTAACT | 0.135 |
| CTACAAAC | 0.0828 |
| ATCATTCC | -0.0151 |
| GACCCCCA | -0.334 |
| CCTCAACG | -0.238 |
| ACGTGATC | -0.11 |
| ATGTTCGG | 0.181 |
| CAAACATA | 0.0624 |
| AGACCAAA | 0.026 |
| CTATACTA | 0.21 |
| AAGGAGAG | -0.224 |
| GCAATTAA | 0.24 |
| AAGGACTC | -0.00078 |
| AAACGTAG | -0.0839 |
| AACAGTTG | -0.0513 |
| ACCCGCCT | -0.184 |
| ATTAGCGC | 0.03 |
| ATCCACTC | 0.00375 |
| TCGAGCCA | -0.266 |

| Sequence | PBM E-score |
| --- | --- |
| CGGAAACG | 0.0711 |
| AGTGAGGG | -0.249 |
| CTCCAGTC | -0.0811 |
| ACCTTTTG | 0.0149 |
| ACGGCATA | -0.0441 |
| GTACGCGA | -0.205 |
| GCTATCAC | -0.175 |
| TGGCCACA | -0.0965 |
| CCTGGTTA | -0.0745 |
| ATATCCGG | 0.159 |
| ACAAATTG | 0.0792 |
| TCTCAGCA | -0.256 |
| TATTCGGA | 0.352 |
| TGGGCGAA | -0.101 |
| CGACCGAC | 0.0304 |
| GAACCGGA | 0.32 |
| AGTAATCA | 0.0342 |
| ATCCGTTA | 0.275 |
| AGGATGCA | -0.108 |
| GAACGCAC | -0.058 |
| ACGTCCTA | -0.0698 |
| CAAAGACA | 0.00325 |
| CCACTCGC | -0.258 |
| CAGTCGGG | -0.00267 |
| TACGCACA | -0.0951 |

| Sequence | PBM E-score |
| --- | --- |
| CGCTGGGC | -0.0446 |
| ACAAATAA | 0.209 |
| AGGTCCGC | 0.286 |
| CGATCGCA | -0.064 |
| GGACCTGA | 0.127 |
| AAAGCTAA | 0.105 |
| ATGCAGGG | -0.26 |
| AATAACTG | 0.219 |
| GCTCGAGC | -0.0513 |
| ACAGGCTG | -0.184 |
| GACAAGGC | -0.17 |
| ACGGGAAA | 0.0626 |
| AGGGGGTG | -0.286 |
| ATAGGTCA | 0.0286 |
| ACAATGAC | -0.0412 |
| GAATTTAC | 0.0497 |
| CGCCTGAA | -0.0478 |
| CAGACTGA | -0.0426 |
| CTATTTCC | 0.166 |
| ACATACGT | -0.0114 |
| CACACCCC | -0.157 |
| ACCCGGCG | -0.163 |
| TATATACA | 0.316 |
| AGCAGACT | -0.0252 |
| GGTACGTA | -0.182 |

| Sequence | PBM E-score |
| --- | --- |
| CAAGGCAA | -0.0339 |
| ACCCAAAA | -0.0255 |
| GCCTTCGC | -0.122 |
| CGTGCGAA | -0.0471 |
| AGGGCGAT | -0.29 |
| CCATATCC | -0.0916 |
| AACTTCTT | 0.131 |
| AACATAGA | 0.0101 |
| CATGTGAC | -0.0811 |
| ACCGCAGG | -0.0326 |
| CTTAACCA | 0.0986 |
| ATGAAGGC | 0.079 |
| AGATGACC | -0.052 |
| CGCAAGCA | 0.0173 |
| CGCCCTCA | -0.206 |
| ACATGTAT | 0.239 |
| TAAACGAA | 0.263 |
| ACGCGAAT | -0.0996 |
| GGACTAGA | 0.183 |
| GCACCTAA | -0.0101 |
| AGTCGGTG | -0.159 |
| AATGCGAG | 0.112 |
| CACGATGG | -0.0935 |
| TATTAACA | 0.233 |
| AGAAGTGG | -0.0491 |

| Sequence | PBM E-score |
| --- | --- |
| AACAATCT | 0.0933 |
| ACCATTAT | 0.00269 |
| CGCGTCGC | -0.0356 |
| AAGGTAAA | 0.152 |
| TGACATAA | 0.165 |
| ATCCTGGC | -0.149 |
| AATTCAGC | -0.0828 |
| AGCACGAC | -0.154 |
| AATTTTGT | 0.27 |
| CACAGTCC | 0.0564 |
| AGCGGCTG | -0.173 |
| GAAAGGGA | -0.0788 |
| GCACTAAC | 7e-05 |
| GAACTCAA | -0.0301 |
| CTGTGCTC | -0.0152 |
| CGGCAGAC | -0.143 |
| AGCGGTTG | -0.136 |
| ACCAACGG | 0.0195 |
| ATGGTGCC | -0.227 |
| AGCAGGGG | -0.175 |
| AGGCGTCG | -0.205 |
| CAGTTATG | 0.0135 |
